Measured values published in a compilation of properties of binary mixtures (doi:10.1016/j.molliq.2016.11.066).
The densities may have been worked out from excess volumes.

Experiment: xn = mol fraction of the nth substance listed
Conditions: 101 kPa

COCCO + CCCC[n+]1ccn(C)c1.F[P-](F)(F)(F)(F)F
x2 = 0
Conditions	mass density [kg/m3]
298.15 K	960.3
303.15 K	955.7
308.15 K	951.1
313.15 K	946.4
318.15 K	941.7
323.15 K	936.9

CCCC[n+]1ccn(C)c1.F[P-](F)(F)(F)(F)F + COCCO
mass density [kg/m3]
Conditions	x1 = 0.0966	x1 = 0.1943	x1 = 0.2887	x1 = 0.3979	x1 = 0.4792	x1 = 0.5943	x1 = 0.6753	x1 = 0.8101	x1 = 0.8849	x1 = 1
298.15 K	1054.2	1125.7	–	1227.1	1256.1	–	1309.6	1337.1	–	1367.2
303.15 K	1049.7	1121.2	1174.5	–	1251.8	1285.5	1305.4	1332.9	–	1363
308.15 K	1045.2	1116.7	1170.1	–	1247.4	1281.3	–	1328.7	1341.6	–
313.15 K	1040.7	1112.3	1165.6	1214	1243.1	1277	–	1324.5	1337.4	1354.5
318.15 K	1036.1	1107.8	1161.2	–	1238.7	1272.7	–	1320.2	1333.2	–
323.15 K	1031.5	1103.3	1156.7	1205.1	1234.3	1268.4	1288.3	1316	–	1346
